# Measurements: PubChem BioAssay AID485344 (National Center for Advancing Translational Sciences (NCATS), 2010)
# The whole screen tested about 340,000 compounds, of which about 6,900 (2%) were called active. No stated cut-off is given here; in the data, active means inhibition above about 30%; inactive means below that, where a call was filed. The list shows a part of the results, in another mix than the full data. Entries without a call were filed so in the source.
# Target: D(2) dopamine receptor (Homo sapiens) (UniProt P14416)
# Assay: HTS Assay for Allosteric Antagonists of the Human D2 Dopamine Receptor: Primary Screen for Antagonists; further: 0% is about no effect
# Details: HEK293 TREx D2 cells, calcium flux, dopamine EC80; at 10 µM; stronger effect = higher value
# Outline: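 Cells plated overnight at 30 C with tetracycline; no-wash calcium dye, 30–90 min RT; 10 s baseline; compound pinned; 180 s read; EC80 dopamine added; another 180 s read.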
# UniProt P14416, sequence (P14416 whole entry, looked up): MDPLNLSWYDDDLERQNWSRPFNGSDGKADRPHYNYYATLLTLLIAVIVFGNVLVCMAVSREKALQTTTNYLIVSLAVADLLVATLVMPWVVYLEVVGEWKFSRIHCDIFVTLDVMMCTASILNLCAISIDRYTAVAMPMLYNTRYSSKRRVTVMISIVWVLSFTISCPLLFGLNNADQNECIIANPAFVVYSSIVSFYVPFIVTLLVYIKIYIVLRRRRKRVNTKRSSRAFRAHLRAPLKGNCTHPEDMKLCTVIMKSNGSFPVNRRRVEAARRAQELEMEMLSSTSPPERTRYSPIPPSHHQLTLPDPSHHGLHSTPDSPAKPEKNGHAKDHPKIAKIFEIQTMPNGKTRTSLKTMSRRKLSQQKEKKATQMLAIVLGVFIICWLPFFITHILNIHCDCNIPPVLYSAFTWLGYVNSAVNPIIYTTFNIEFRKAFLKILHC
row,Compound,inhibition
1,Cc1c(C(c2ccc(F)cc2)c2c(O)c3ccccc3oc2=O)c(=O)n(-c2ccccc2)n1C (centres undefined),-12.8%
2,O=C(COc1ccc(Cl)cc1)Nc1ccc(Cl)cc1C(=O)c1ccccc1,-7.42%
3,Cc1nnc(NC(=O)c2cccn(Cc3ccccc3F)c2=O)s1,8.69%
4,O=C1CC(c2c(F)cccc2Cl)c2c(c3ccccc3oc2=O)O1 (centres undefined),9.69%
5,CC(C)(C)c1ccc(C(=O)Nc2ccc(Cl)cc2C(=O)c2ccccc2)cc1,1.24%
6,COc1ccc(CN2CCN(c3ccccc3)CC2)c(C)c1C,active: 65.2%
7,CN1CCCC(C(=O)c2ccccc2)C1 (centres undefined),active: 30.2%
8,O=C(CCCN1CCC(n2c(=O)[nH]c3ccccc32)CC1)c1ccc(F)cc1,active: 76.6%
9,O=C(Nc1cc(C(F)(F)F)cc(C(F)(F)F)c1)c1cccn(Cc2ccccc2Cl)c1=O,9.66%
10,CN1CCN(c2c(F)cc([N+](=O)[O-])c(N)c2Br)CC1,active: 35.1%
11,C=Cc1ccc(Cn2c(C)c(CNCCc3cc(OC)ccc3OC)c(C(=O)O)c2C)cc1,-2.17%
12,CCN(CC)c1ccc(CN2CC=C(c3ccc(F)cc3)CC2)cc1,active: 40.7%
13,Clc1ccc2c(c1)C(c1ccccc1Cl)=NCc1nnc(N3CCN(CCOc4ccccc4)CC3)n1-2,active: 64.9%
14,CCCCc1nn2c(=O)cc(COC(=O)Cc3ccccc3)nc2s1,1.96%
15,c1ccc(CN2CCc3nc4ccccc4cc3C2)cc1,active: 76.4%
16,CCN(CC)CCCOC(=O)C(OC(C)C)(c1ccccc1)c1ccccc1,active: 57.1%
17,Cc1ccc(NC(=O)CN2C(=O)CN=C(c3ccccc3)c3ccccc32)cc1,13%
18,COc1cc(CN2CC=C(c3ccc(F)cc3)CC2)cc(OC)c1,active: 81.1%
19,Cc1ccccc1-n1nc(C)c2c1NC(=O)CSC2c1ccc(N(C)C)cc1 (centres undefined),-2.12%
20,CCCCCc1nc2ccccc2c(=O)n1-c1ccc(C)cc1,4.26%
21,Cc1ccc(-c2cc(-c3ccccc3)cc(-c3ccccc3)[n+]2-c2ccccc2)cc1,active: 38.2%
22,Cc1ccc(CN2C(=O)c3ccccc3Sc3ccc(C(=O)N4CCC5(CC4)OCCO5)cc32)cc1,0.994%
23,COc1ccc(-n2c(/C=C\c3ccccc3F)nc3ccccc3c2=O)cc1OC,-7.44%

row,Compound,inhibition
1,Nc1c(C(=O)Nc2ccc(Cl)c(C(F)(F)F)c2)sc2nc3c(cc12)N1CCC3CC1,2.68%
2,NC1CCc2cc(O)c(O)cc2C1 (centres undefined),active: 101%
3,CC(C)c1nn2c(=O)cc(COC(=O)Cc3ccccc3)nc2s1,-21.6%
4,CCCCOc1ccc(CCN)cc1Cl,active: 41.8%
5,C/C=C(\C)C(=O)OC1C(C)=C2C(C1OC(=O)CCCCC)C(C)(OC(C)=O)CC(OC(=O)CCC)C1(O)C2OC(=O)C1(C)O (centres undefined),active: 35.9%
6,CN1CCN(c2c[nH]c(=O)[nH]c2=O)CC1,active: 35.6%
7,O=C1CN=C(c2ccccc2Cl)c2cc(Cl)ccc2N1Cc1cccc(Cl)c1,-6.14%
8,Cc1ccc(NC(=O)c2cccn(Cc3ccccc3C)c2=O)c(C)c1,15.9%
9,Cc1ccc(NC(=O)Cn2cc(C(=O)c3ccccc3)c3ccccc32)cc1,-3.69%
10,Cn1c(=O)n(C)c2cc(CNCCc3ccc(F)cc3)ccc21,8.17%
11,CN1CSC(=S)N(C)C1,active: 41.5%
12,CC(=NCCC1=CCCCC1)c1c(O)n(-c2ccccc2)c(=O)[nH]c1=O,active: 31%
13,Cc1ccc2nc(NC(=O)c3cccn(Cc4ccc(Cl)cc4)c3=O)sc2c1,19.5%
14,CCOc1ccc(CN(CCc2ccc3c(c2)OCO3)Cc2cccc(OC)c2)cc1,-1.59%
15,CCOc1ccc(NC(=O)Cn2cc(C(=O)c3ccccc3)c3ccccc32)cc1,8.39%
16,CC(C)C12CN3CC(C(C)C)(CN(C1)C3c1ccccn1)C2=O (centres undefined),17.8%
17,CC(=O)N1CCC(N2CCCC(C(=O)c3cccc(Cl)c3)C2)CC1 (centres undefined),active: 77.8%
18,Cc1ccc(-n2c(/C=C\c3ccc(F)cc3)nc3ccccc3c2=O)cc1Cl,8%
19,Cc1cccc(-c2nc(CN3C(=O)CN=C(c4ccccc4)c4ccccc43)c(C)o2)c1,-8.44%
20,CCCOc1ccc(C2SCC(=O)Nc3c2c(C)nn3-c2cccc(C)c2)cc1OC (centres undefined),8.63%
21,COc1cccc(NC(=O)Cn2cc(C(=O)c3ccccc3)c3ccccc32)c1,1.16%
22,Oc1cc2c(cc1CN1CCN(c3ccccc3)CC1)OCO2,active: 108%
23,Cc1cccc(Cn2cccc(C(=O)Nc3ccc4c(c3)OCCO4)c2=O)c1,-16.6%

row,Compound,inhibition
1,CCN(CC)CCSc1nc2ccccc2c(=O)n1-c1ccc(Cl)cc1,8.48%
2,Cn1cc(C(=O)OCC(=O)NC2CCCCC2)c2ccccc21,active: 39.1%
3,O=C1NC(=O)[C@]2(Cc3ccccc3N3CCN(c4ccccc4)CC32)C(=O)N1Cc1ccccc1 (some centres undefined),active: 39.8%
4,CCOC(=O)C1(CCc2ccccc2)CCN(Cc2cccc3c2OCO3)CC1,active: 47.3%
5,CC1CCN(CC#CCOc2ccc(Cl)cc2)CC1,active: 86.3%
6,Cc1ccc(Cn2cccc(C(=O)Nc3ccc4c(c3)OCO4)c2=O)cc1,-14.9%
7,Cc1cccc(CNCCc2c[nH]c3ccccc23)c1,active: 46.8%
8,Cc1cccc(OCC(=O)N2CCN(CCc3ccccn3)CC2)c1,22.6%
9,O=C(Nc1ccc(F)c([N+](=O)[O-])c1)c1cccn(Cc2ccccc2)c1=O,-1.15%
10,COc1ccccc1N1CCN(Cc2ccccc2)CC1,active: 96.6%
11,COC(=O)C1=C(c2c(C)noc2C)C[C@@H]2CC[C@H]1N2C(=O)NC(C)C,active: 41.8%
12,CCCN1CCO[C@@H]2c3cc(O)ccc3OC[C@H]21,active: 72.2%
13,Cc1ccc(-n2c(=O)[nH]c3ccc(Br)cc3c2=O)cc1,4.56%
14,CC1(C)CSC(=NCc2ccccc2)N1,active: 55.7%
15,Cc1cccc(CN2CC=C(c3noc(CCC(=O)Nc4ccc(C)c(F)c4)n3)CC2)c1,2.73%
16,COCCOC(=O)c1c(N)n(Cc2ccccc2)c2nc3ccccc3nc12,active: 36.2%
17,COc1ccc(NC(=O)c2sc3nc4c(cc3c2N)N2CCC4CC2)cc1OC,-0.131%
18,Cc1ccc2c(c1)C(Cc1nc3ccccc3c(=O)n1-c1ccc(Br)cc1)C(=O)N2 (centres undefined),-4.58%
19,CN1CC(C(=O)c2ccccc2)C(c2ccccc2)C1 (centres undefined),active: 35.1%
20,O=C(COc1ccccc1F)N1CCN(Cc2cc(=O)n3nc(-c4ccccc4Cl)sc3n2)CC1,5.14%
21,CSc1ccccc1C(=O)C1CCCN(Cc2ccn[nH]2)C1 (centres undefined),active: 48.4%
22,O=C(COc1cc(Cl)ccc1Cl)Nc1ccc(Cl)cc1C(=O)c1ccccc1,-15.3%
23,CCCN1CCCC(C(=O)c2cc(C)c(OC)c(C)c2)C1 (centres undefined),active: 86.3%
